Test results reported in paper PMC4336329 (PLoS ONE, 2015).
Screen size: about 310,000 compounds; about 2,200 (0.71%) showed an effect of 50% or more. Effects have a minus sign here. Some of the results follow.

What follows are molecules tested against human ether-à-go-go-related gene (hERG) potassium channel (human, UniProt Q12809) (assay: primary screen, population patch clamp on CHO cells stably expressing hERG).
Chain of human ether-à-go-go-related gene (hERG) potassium channel (Q12809 whole entry, looked up): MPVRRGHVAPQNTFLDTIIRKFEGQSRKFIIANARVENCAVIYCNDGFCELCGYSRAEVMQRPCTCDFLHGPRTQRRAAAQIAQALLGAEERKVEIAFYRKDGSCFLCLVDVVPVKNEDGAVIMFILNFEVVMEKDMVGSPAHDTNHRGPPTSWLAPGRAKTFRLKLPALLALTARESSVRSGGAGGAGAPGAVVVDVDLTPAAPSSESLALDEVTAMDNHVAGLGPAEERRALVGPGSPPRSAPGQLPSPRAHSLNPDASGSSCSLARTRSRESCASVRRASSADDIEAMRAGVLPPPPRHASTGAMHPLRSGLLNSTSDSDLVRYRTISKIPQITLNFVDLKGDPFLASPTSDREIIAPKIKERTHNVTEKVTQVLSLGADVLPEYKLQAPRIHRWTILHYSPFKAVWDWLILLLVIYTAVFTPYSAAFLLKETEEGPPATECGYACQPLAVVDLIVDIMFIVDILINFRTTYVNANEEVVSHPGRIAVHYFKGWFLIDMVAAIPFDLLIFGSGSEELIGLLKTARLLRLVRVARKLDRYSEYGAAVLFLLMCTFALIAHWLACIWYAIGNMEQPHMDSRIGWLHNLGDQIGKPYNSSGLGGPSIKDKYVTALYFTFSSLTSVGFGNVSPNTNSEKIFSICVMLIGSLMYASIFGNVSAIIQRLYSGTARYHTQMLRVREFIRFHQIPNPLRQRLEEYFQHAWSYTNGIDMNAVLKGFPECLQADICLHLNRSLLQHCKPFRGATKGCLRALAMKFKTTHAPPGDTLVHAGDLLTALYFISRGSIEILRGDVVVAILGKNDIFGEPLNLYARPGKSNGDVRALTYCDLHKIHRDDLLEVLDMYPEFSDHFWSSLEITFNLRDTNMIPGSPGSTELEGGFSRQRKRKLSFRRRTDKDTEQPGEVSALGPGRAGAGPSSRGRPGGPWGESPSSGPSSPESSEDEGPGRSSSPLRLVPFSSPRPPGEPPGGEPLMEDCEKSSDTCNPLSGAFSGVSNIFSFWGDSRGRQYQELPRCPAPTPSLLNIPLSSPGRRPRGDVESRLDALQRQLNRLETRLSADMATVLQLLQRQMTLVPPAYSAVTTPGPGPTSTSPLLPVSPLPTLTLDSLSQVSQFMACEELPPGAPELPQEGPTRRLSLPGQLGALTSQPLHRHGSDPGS

In order of falling “hERG current change (%, negative = inhibition) at 1uM” value:
1. CCOC(=O)CSc1nnc(Cn2nnc(-c3ccccc3)n2)n1C  19.2%
2. CN(C)CCCNCC(=O)Nc1ccccc1N1CCOCC1.O=C(O)C(=O)O  17.6%
3. CCC(=O)Nc1sc2c(c1C(N)=O)CCC2  17.2%
4. O=C(O)C1CCCN1S(=O)(=O)c1cccc2nsnc12 (stereo not drawn)  17%
5. O=C(COC(=O)C1=NNC(=O)CC1)NCCc1ccccc1  17%
6. COc1c(C(=O)N2CCCC2)ccc2ccccc12  15.7%
7. Cc1nn(-c2ccccc2)c(C)c1/C=N/NC(=O)c1cc(-c2ccc(Cl)s2)[nH]n1  15.7%
8. COC(=O)[C@H](C)NC(=O)NCCC1=CCCCC1  15.4%
9. O=S(=O)(/N=C(\Sc1ccccc1)c1ccccc1)c1ccc(Cl)cc1  14.1%
10. Cc1cc(S(=O)(=O)NC2CCCC2)ccc1-n1cnnn1  13.5%
11. O=C(Nc1ccc(C(=O)N2CCOCC2)cc1)Nc1cccc2ccccc12  12.8%
12. O=C(COC(=O)c1ccccc1OCC(=O)Nc1ccc(Br)cc1)Nc1ccccc1  11.5%
13. Cn1c(SCc2ccccc2C#N)nnc1-c1ccncc1  11.5%
14. CCC1CN(C(=O)NCc2ccccc2)c2cc(Cl)ccc2O1 (stereo not drawn)  11.2%
15. Cc1ccc(OP(=O)(Nc2cccc(C)c2)Oc2ccc(C)cc2)cc1  11.2%
16. Clc1cccc(Cl)c1Cl  11%
17. CC(C)c1nnc(NC(=O)C2CCCO2)s1 (stereo not drawn)  10.8%
18. COc1cccc(CNC(=O)c2cccc(S(=O)(=O)N3CCN(c4ccc(F)cc4)CC3)c2)c1  10.6%
19. O=C(CNCC1CCCO1)N1CCCc2ccccc21.O=C(O)C(=O)O (stereo not drawn)  9.85%
20. N#Cc1c(Nc2ccccc2Cl)s[nH]c1=O  9.71%
21. Cn1c(=O)cc(SCC(=O)N2CCCC2)c2cc(Cl)ccc21  9.41%
22. COc1cc2ccccc2cc1C(=O)NNC(=O)c1ccccc1O  9.39%
23. O=C(Nc1ccc(C(=O)N2CCCCC2)cc1)c1ccc(Br)cc1  9.33%
24. O=C1C=C(c2ccc(Cl)cc2)C(=O)N1Nc1ccccc1  9.11%
25. CN(C)S(=O)(=O)c1ccc(Cl)c(C(=O)NC2CCCCCCC2)c1  8.77%
26. Oc1cccc(/C=N/Nc2cc(N3CCCC3)nc(N3CCCC3)n2)c1  8.58%
27. CC(C)CCNC(=O)CCc1nnc2ccc(N3CCC(C)CC3)nn12  8.56%
28. COc1ccc2c(c1)N(C)/C(=C1/SC(=S)N(NC(C)=O)C1=O)S2  7.8%
29. C/C(=N\NC(=O)c1c(Br)c(C)nn1C)c1cccc(NC(=O)c2ccccc2F)c1  7.68%
30. CCCCc1c(O)nc(N2CCN(Cc3ccccc3)CC2)[nH]c1=O  7.48%
31. CCOC(=O)c1ccc(NC(=O)CSc2nnc(-c3cccs3)n2C)cc1  6.5%
32. COc1ccc(C(=O)N2CCc3[nH]nc(-c4ccccc4)c3C2)cc1  6.29%
33. N#Cc1ccc(C(=O)Nn2cnnc2)cc1  5.85%
34. CC(C)c1ccc(NC2CCCN(C(=O)CN3CCOC3=O)C2)cc1 (stereo not drawn)  5.63%
35. NC(=O)N/N=C/c1ccc(-c2cccc(C(F)(F)F)c2)o1  4.7%
36. Cc1nn(-c2ccc(N3CCCCC3)nn2)c(C)c1CCC(=O)Nc1ccc(F)cc1  4.57%
37. COc1ccc(C(=O)CC(=O)O)c2c1C=CC(C)(C)O2  4.4%
38. COc1cc(C(=O)NCCc2cc3c(OC)ccc(OC)c3[nH]c2=O)cc(OC)c1OC  3.99%
39. CC/C(Cc1ccccc1)=N\NC(=O)c1cc(C)oc1C  3.99%
40. COc1ccccc1CCNC(=O)NC1CCCCC1  3.62%
41. CC12COC3(C(=O)Nc4cccnc4)CC1CCC32C (stereo not drawn)  2.96%
42. COc1ccccc1N(CC(=O)NCCSCc1cccc(C)c1)S(=O)(=O)c1ccccc1  2.44%
43. CN1C(=O)NC(=O)/C(=C\C=C\c2ccccc2[N+](=O)[O-])C1=O  1.99%
44. O=C(COC(=O)COc1ccc(Br)cc1)NCCC1=CCCCC1  1.54%
45. COc1ccc(-n2c(O)c(/C(C)=N/N3CCCCCC3)c(=O)[nH]c2=O)cc1  0.871%
46. Cc1cccc(C)c1OCc1cc(C(=O)N2CCN3CCCC3C2)no1 (stereo not drawn)  -0.209%
47. CCOc1cc2[nH]c(=O)n(Cc3ccc(C(=O)NCCCN4CCC(C)CC4)cc3)c(=O)c2cc1OCC  -0.543%
48. Cn1c(=O)[nH]c(=O)c2[nH]c(N(Cc3ccccc3)Cc3ccccc3)nc21  -1.43%
49. CN1CCN(NC(=O)c2cc([N+](=O)[O-])cc([N+](=O)[O-])c2)CC1  -1.47%
50. O=C(CNC(=O)c1ccc2c(=O)n3c(nc2c1)CCC3)Nc1ccc(F)c(F)c1  -1.96%
51. Cc1ccc(CSC2=NCCN2C(=O)c2ccc([N+](=O)[O-])cc2)cc1  -2.5%
52. CC(C)C(C(=O)Nc1ccc(S(=O)(=O)N2CCOCC2)cc1)N1C(=O)c2ccccc2C1=O (stereo not drawn)  -3.57%
53. COC(=O)C1=C(c2ccc(Cl)c(C(F)(F)F)c2)C[C@@H]2CC[C@H]1N2C(=O)NCc1ccco1  -5.46%
54. Cl.c1ccc(COc2cccc(CNCc3ccccn3)c2)cc1  -7.26%
55. CC(=O)Nc1ccc(S(=O)(=O)N2CCCN(S(=O)(=O)c3ccc(C)cc3)CC2)cc1  -10.1%
56. Cc1cc(Br)cc(Cl)c1OCC(=O)N1CCN(C(=O)c2ccco2)CC1  -30.9%
57. O=c1ccc(-c2nc3cc(Cl)ccc3n2Cc2ccccc2)c[nH]1  -45%
